# Hit rate of the full screen: of about 350,000 compounds, about 31,000 (8.9%) were called active. Inconclusive means that the source gave no clear call. Such entries were picked first, then a sample of the others. Calls come from the whole dose curve; as a rule, active = well fitted inhibition curve with a large enough effect; inconclusive = small, poorly fitted or top-dose-only effect; inactive = no such curve, though single readings can be large or run the other way. Potencies beside an inconclusive call are fits to weak or partial responses and may not hold up. The source holds several records for some structures; these can differ, active in one and inactive in another.
# Biological target: Histone-lysine N-methyltransferase EHMT2 (Homo sapiens) (UniProt Q96KQ7)
# Assay: qHTS Assay for Inhibitors of Histone Lysine Methyltransferase G9a; note: nearly all actives have a fitted effect of over 75% in size
# Conditions: G9a H3K9 monomethylation, AlphaScreen, 2 h; activity, negative = inhibition: at 59 µM (top of the series) unless noted
# In short: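 Using a bead-based AlphaScreen, monomethylated H3K9 product from 2 h room-temperature reactions (G9a 20 nM, peptide 500 nM, SAM 20 uM) was detected with 0.5 ug/mL rabbit anti-H3K9me1 antibody.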
# % is set by controls: 0 for no effect and ±100 for the full control effect; potency is the fitted concentration of half-maximal effect; tags give direction and shape of the fitted curve.
# Chain of UniProt Q96KQ7 (Q96KQ7 whole entry, looked up): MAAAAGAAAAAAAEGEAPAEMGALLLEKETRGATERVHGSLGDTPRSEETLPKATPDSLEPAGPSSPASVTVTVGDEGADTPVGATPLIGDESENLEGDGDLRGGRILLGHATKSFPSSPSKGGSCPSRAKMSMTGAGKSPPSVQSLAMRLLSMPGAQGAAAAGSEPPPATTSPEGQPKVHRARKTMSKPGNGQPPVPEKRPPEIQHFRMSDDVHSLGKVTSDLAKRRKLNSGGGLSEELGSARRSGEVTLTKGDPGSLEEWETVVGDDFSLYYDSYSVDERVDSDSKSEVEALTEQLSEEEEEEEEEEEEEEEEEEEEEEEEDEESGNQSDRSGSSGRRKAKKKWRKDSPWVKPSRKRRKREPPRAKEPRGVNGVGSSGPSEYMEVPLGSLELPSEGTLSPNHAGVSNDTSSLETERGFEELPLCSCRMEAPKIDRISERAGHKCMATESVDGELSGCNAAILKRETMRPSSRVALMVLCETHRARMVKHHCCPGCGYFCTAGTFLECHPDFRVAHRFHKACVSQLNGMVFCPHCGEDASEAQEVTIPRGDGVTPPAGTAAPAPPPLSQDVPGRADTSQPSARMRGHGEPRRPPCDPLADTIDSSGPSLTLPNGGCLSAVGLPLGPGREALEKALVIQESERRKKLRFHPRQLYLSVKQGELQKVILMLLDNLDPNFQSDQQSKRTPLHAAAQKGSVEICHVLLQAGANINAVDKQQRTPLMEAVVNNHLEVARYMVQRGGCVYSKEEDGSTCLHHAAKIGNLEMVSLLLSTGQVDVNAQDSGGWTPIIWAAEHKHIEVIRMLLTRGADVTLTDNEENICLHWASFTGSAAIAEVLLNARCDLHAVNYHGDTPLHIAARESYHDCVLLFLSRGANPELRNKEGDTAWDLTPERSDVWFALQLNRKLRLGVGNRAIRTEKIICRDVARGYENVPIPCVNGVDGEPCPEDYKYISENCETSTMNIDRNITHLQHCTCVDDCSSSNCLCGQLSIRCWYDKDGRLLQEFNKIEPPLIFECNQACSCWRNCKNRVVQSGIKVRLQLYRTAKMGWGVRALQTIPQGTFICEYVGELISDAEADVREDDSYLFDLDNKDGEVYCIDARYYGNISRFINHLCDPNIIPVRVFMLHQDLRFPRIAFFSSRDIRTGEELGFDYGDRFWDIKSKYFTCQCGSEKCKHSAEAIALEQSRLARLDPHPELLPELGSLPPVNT
SMILES,Potency,"activity, negative = inhibition"
COc1ccc(/C=C2/SC(=S)N(CCC(=O)O)C2=O)cc1,inactive,–
O=C(N/N=C/c1c(O)ccc2ccccc12)c1[nH]ncc1Br,inactive,–
CCOC(=O)CSc1nnc(CSc2nc3ccccc3s2)n1C,inactive,–
COc1ccc(CCNCc2ccccc2N2CCCC2)cc1,"inconclusive: 79.4 µM [inhibitor, partial curve, poor fit]",–
S=C(Nc1ccc(Cl)cc1)c1nc2ccccc2s1,"inconclusive: 10 µM [inhibitor, partial curve]",–
Cc1ccc(C(=O)Oc2coc(CSc3nnc(NC(=O)c4cccs4)s3)cc2=O)cc1,active: 12.6 µM,–
C=CCN(CC=C)CCOc1cccc2ccccc12,active: 11.2 µM,–
CCSc1ccc([C@@H]2[C@@H]3C(=O)N(CC)C(=O)[C@@H]3[C@]3(C(=O)OC)CCCN23)cc1,–,inconclusive: -65.7% [inhibitor] [at 2.33 µM]
CCCCOC(=O)c1ccc(NC(=S)NC(=O)c2c(Br)c(C)nn2C)cc1,inactive,–
Cc1ccc2onc(CC(=O)N3CCN(c4ccc(F)cc4)CC3)c2c1,inactive,–
COc1ccc(NC2=Nc3cccc4cccc2c34)cc1OC,"inconclusive: 6.31 µM [inhibitor, single point]",–
Cn1c(=O)c2c(nc(CN3CCN(C(=O)c4ccco4)CC3)n2Cc2ccccc2F)n(C)c1=O,"inconclusive: 100 µM [inhibitor, single point]",–
O=C(COC(=O)Cc1ccc(S(=O)(=O)N2CCCCC2)s1)Nc1ccc2c(c1)OCO2,active: 22.4 µM,–
N#CCCN(C(=O)COC(=O)c1ccc(S(=O)(=O)N2CCCCCC2)cc1)c1ccccc1,inactive,–
Cc1ccc(-c2c(CN3CCN(c4cccc(C)c4)C(C)C3)csc2C)cc1 (stereo not given),inactive,–
O=C(c1ccc(S(=O)(=O)N2CCOCC2)cc1)N1CCc2ccccc2C1,"inconclusive: 31.6 µM [inhibitor, partial curve, poor fit]",–
Cc1ccc(S(=O)(=O)N[C@H](C(=O)N2CCC(C(=O)N3CCC[C@H]3C(=O)O)CC2)C(C)C)cc1,"inconclusive: 89.1 µM [inhibitor, single point]",–
Cc1cccc(C)c1NC(=O)CN(C)C(=O)CSC(=S)N1CCCC1,inactive,–
CC(NC(=O)COC(=O)CCc1nc2ccccc2c(=O)[nH]1)c1ccccc1 (stereo not given),"inconclusive: 31.6 µM [inhibitor, partial curve, poor fit]",–
CCOC(=O)c1c(C)[nH]c(C)c1C(=O)COC(=O)[C@@H]1CCCN1S(=O)(=O)c1ccc(Cl)cc1,"inconclusive: 89.1 µM [inhibitor, single point]",–
O=C(Nc1ccccc1N1CCOCC1)c1cccc(S(=O)(=O)N2CCOCC2)c1,"inconclusive: 35.5 µM [inhibitor, single point]",–
COc1cccc(-c2nc(-c3ccc4c(c3)-c3ccccc3S4(=O)=O)c(-c3ccccc3)[nH]2)c1OC,"inconclusive: 35.5 µM [inhibitor, single point]",–

SMILES,Potency,"activity, negative = inhibition"
Cc1cccc(C)c1OCC(=O)Nc1ncn[nH]1,active: 14.1 µM,inactive: -46.3% [at 12.7 µM]
CCOCCCn1c(SCC(=O)Nc2ccc(OC)cc2)nc2ccccc2c1=O,active: 31.6 µM,–
CN(CCCNC(=O)c1cc2c(Cl)nc3ccccc3c2s1)Cc1ccccc1,"inconclusive: 44.7 µM [inhibitor, partial curve, poor fit]",–
Oc1c(N=NC(=S)Nc2ccccc2F)c2ccccc2n1Cc1cccc(Cl)c1,"inconclusive: 8.91 µM [inhibitor, full curve]",–
Cc1cccc(C)c1OCC(O)CN1CCN(c2ccccn2)CC1 (stereo not given),"inconclusive: 56.2 µM [inhibitor, partial curve, poor fit]",–
Cc1nn(-c2ccccc2)c2c1C(c1ccc(F)cc1)C(C#N)=C(N)O2 (stereo not given),active: 50.1 µM,–
CC1CCCN(C(=O)C2CCN(S(=O)(=O)c3cccc4cccnc34)CC2)C1 (stereo not given),"inconclusive: 89.1 µM [inhibitor, single point]",–
CN(CC(=O)Nc1sccc1C#N)C1CCCCC1,"inconclusive: 22.4 µM [inhibitor, single point]",–
CCOc1ccc(NC(=O)CSc2nnnn2-c2ccc(C(N)=O)cc2)cc1,"inconclusive: 5.01 µM [inhibitor, partial curve, poor fit]",–
Cc1cc(C)n2nc(C(=O)NNC(=O)c3ccc(Cl)cc3)nc2n1,"inconclusive: 3.16 µM [inhibitor, single point]",–
CCOc1cc(/C=C2\C(=O)N(c3cccc(C(F)(F)F)c3)C(=O)c3ccccc32)ccc1O,"inconclusive: 31.6 µM [inhibitor, single point]",–
COCCCNC(=O)c1ccccc1SC,–,inconclusive: -64.6% [inhibitor]
CSCCC(NC(=O)C1CCC(C)CC1)C(=O)Nc1ccc(NC(C)=O)cc1 (stereo not given),"inconclusive: 22.4 µM [inhibitor, single point]",–
CS(=O)(=O)Nc1ccc(S(=O)(=O)N2CCCCCC2)cc1,inactive,–
CCOC(=O)c1ccc(CN(Cc2ccc(F)cc2)S(=O)(=O)c2ccc(F)c(C(=O)Nc3ccc(Cl)cc3F)c2)cc1,inactive,–
CC(C)c1ccc(NC(=O)[C@@H](C)NC(=O)[C@@H]2Cc3ccccc3CN2)cc1,"inconclusive: 50.1 µM [inhibitor, partial curve, poor fit]",–
CCOc1ccc(NC(=O)c2c(NCc3cccnc3)sc3c2CCCC3)cc1,active: 2.82 µM,–
CCCOc1ccccc1-c1nc2c([nH]1)c(=O)[nH]c(=O)n2C,–,inconclusive: -71.9% [inhibitor]
O=C(CSc1nn(-c2ccc(F)cc2)c(=S)s1)N1CCN(C(=O)c2ccco2)CC1,inactive,–
Cc1ncc([N+](=O)[O-])n1Cc1ccccc1,"inconclusive: 5.01 µM [inhibitor, full curve, poor fit]",–
COc1ccc(-c2coc3cc(O)ccc3c2=O)cc1O,–,inconclusive: -68.6% [inhibitor]
CC(C)NC(=O)Cn1cnc2c1c(=O)n(C)c(=O)n2C,"inconclusive: 3.16 µM [inhibitor, partial curve, poor fit]",–
